Measured values: the supplement of paper PMC12645437, “Orthogonal IMiD-Degron Pairs Induce Selective Protein Degradation in Cells” (ACS Chemical Biology, 2025)
The other results are listed elsewhere or left out.

target: no compound (DMSO); test: log2 fold change of degron read counts, EGFP-low vs EGFP+ sorted cells; higher = lower degron-EGFP level without compound (poor expression or instability); conditions: compound: DMSO control; 18 h
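Further: jurkat cells carrying a lentiviral library of mutant zinc finger degrons fused to EGFP plus mCherry, mCherry+ cells FACS sorted, degron abundance counted by next-generation sequencing.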

Row | Sequence | log2 fold change of degron read counts
1 | FKCDVCGAWFTQKGNLLRHIKL | -1.03
2 | FDCEICGADFTQKGNLLRHIKL | -0.992
3 | FHCSVCGHEFTQKGNLLRHIKL | -0.97
4 | FRCDICGALFTQKGNLLRHIKL | -0.618
5 | FACPQCGAIFTQKGNLLRHIKL | -0.541
6 | FHCDQCGAFFTQKGNLLRHIKL | -0.953
7 | FCCNQCGRGFTQKGNLLRHIKL | -0.526
8 | FACPVCGAGFTQKGNLLRHIKL | -0.0932
9 | FVCPICGATFTQKGNLLRHIKL | -0.325
10 | FWCPICGAQFTQKGNLLRHIKL | -0.0378
11 | FQCSVCGHDFTQKGNLLRHIKL | -1.26
12 | FDCPQCGAQFTQKGNLLRHIKL | -0.889
13 | FDCNICGAQFTQKGNLLRHIKL | -0.948
14 | FFCNQCGRCFTQKGNLLRHIKL | 0.541
15 | FVCNVCGAFFTQKGNLLRHIKL | 0.155
16 | FQCPVCGAKFTQKGNLLRHIKL | -0.629
17 | FDCPICGAQFTQKGNLLRHIKL | -1.01
18 | FWCPICGADFTQKGNLLRHIKL | 0.305
19 | FECEICGHTFTQKGNLLRHIKL | -1.83
20 | FCCPICGRFFTQKGNLLRHIKL | 1.03
21 | FFCEVCGADFTQKGNLLRHIKL | -2.37
22 | LICEICGFMCTQKGNLLRHIKL | 0.385
23 | FWCPICGHDFTQKGNLLRHIKL | 0.715
24 | FNCPICGHKFTQKGNLLRHIKL | -0.528
25 | LQCPICGFQCTQKGNLLRHIKL | 0.289

Row | Sequence | log2 fold change of degron read counts
26 | FHCDVCGAVFTQKGNLLRHIKL | -0.995
27 | FLCPVCGAEFTQKGNLLRHIKL | -0.764
28 | FLCNQCGHSFTQKGNLLRHIKL | -0.417
29 | FDCPVCGAEFTQKGNLLRHIKL | -2.01
30 | FECPVCGAHFTQKGNLLRHIKL | -0.0373
31 | FDCNQCGRMFTQKGNLLRHIKL | 0.74
32 | FYCNQCGHIFTQKGNLLRHIKL | 0.922
33 | LCCEICGFICTQKGNLLRHIKL | 0.744
34 | FTCSVCGHMFTQKGNLLRHIKL | -0.182
35 | FKCPQCGAWFTQKGNLLRHIKL | 0.115
36 | FVCEQCGANFTQKGNLLRHIKL | -2.17
37 | LYCEICGFGCTQKGNLLRHIKL | 0.505
38 | FTCEICGAMFTQKGNLLRHIKL | -1.11
39 | FMCEICGHYFTQKGNLLRHIKL | -0.726
40 | FDCPICGHAFTQKGNLLRHIKL | -1.27
41 | FHCPVCGAFFTQKGNLLRHIKL | 0.314
42 | LFCPICGFYCTQKGNLLRHIKL | 2.07
43 | FICPICGHSFTQKGNLLRHIKL | -0.329
44 | FHCNQCGHRFTQKGNLLRHIKL | 0.518
45 | FHCSVCGHQFTQKGNLLRHIKL | -0.163
46 | FTCPICGRVFTQKGNLLRHIKL | -0.417
47 | FLCEQCGAGFTQKGNLLRHIKL | -1.83
48 | FLCPICGAHFTQKGNLLRHIKL | 0.00311
49 | FYCNVCGAFFTQKGNLLRHIKL | 0.892
50 | FRCNQCGRQFTQKGNLLRHIKL | -0.148
